{"source": "paper PMC7005341", "about": "(Computational and Structural Biotechnology Journal, 2020)", "biological_target": "the molecule itself", "test": "western blot of oligomer bands after SDS-PAGE", "data": [{"protein": "sigma 1 receptor (σ1R), human, E102Q mutant, unmodified (receptor) not shown", "values": [{"measurement": "stoichiometry N", "value": 2}]}]}
